Test results reported in PubChem BioAssay (NCI).
Where a structure was tested more than once in an assay, its records may differ in their call.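 For each line, cells grew in 96-well plates with the test compound present at a single concentration for 48 hours.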 Certain results were filed several times, with different values. The list is limited to them. How the source made its calls: active means growth percent below 10; inactive means the rest. The source may hold further records. The screen tested this drug many times, at its own concentration, as given; each value is one run. Brackets with × count equal records among those shown.

Experiments:
Test in all cases: NCI-60 one-dose screen, 48 h (100 = growth as untreated, 0 = no growth, -100 = all killed)
[1] = test system: SF-295 CNS; conditions: 2.5 mM; runs of 2000
[2] = test system: SF-539 CNS; conditions: 2.5 mM
[3] = test system: UACC-257 melanoma; conditions: 2.5 mM

Compound: O=c1[nH]cc(F)c(=O)[nH]1
- growth [1]: active: 3.81, 0.483, 0.497, 0.713%
- growth ([2]; runs of 1991): active: -27.6, -33, -35.5, -27.1, -31.8, -39.4, -38.6, -20.2, -61.5, -22.8, -58.8, -18.5, -30.7, -19, -39.2, 0.419, 5.86, 9.83, -65.5, -49.8%
- growth ([2]; runs of 1992): active: -24.7, -47.1, -3.12, -56.5, -58.9, -13, -62.2 (3×), -16.5, -23.4, -1.93, -14.1 (2×), -19.4 (2×), -12.2, -67.7, -12.3, 0.306, -25.8, 6.33, -32.8, -34.7, -24.5, -44.1, -36.4, -44.5, -50, -76.6, 6.6, -61.5, 0.846, 1.48, -16.3, 4.72, -52.3, -42.7, 3.45, -81.1, -5.27, -40.8, 8.53, -42.1, -0.738, -30.2, -33.5, -63.9, -78.7, -64.5, -71, -12.1, -49.2, -36.6, -8.55, -26.9 (2×), -52.5, -26.7, -23.2, -78.1, -22.9, -79.9, -19.3, -56.9, -55.2, -36.7, -53.1, -26.8, -28.9, 3.01, -6.92, -35.8, 1.67, -82.3, -74.4, -30.7, -34.1, -26.5, -27.3, -5.9, -60.1, -20.5, -69.7, -33, -1.02, -35.2, -78.6, -67.4, -48, -43.3, -25.6, -69.9, -84.2, -18.9, -1.94% and inactive: 11.5 (2×), 13.7, 12.8, 27.7, 17.7, 58.4, 12.6, 11.3 (2×), 31.9, 56.3, 13.6, 17.2, 33.2, 25.7, 15%
- growth ([2]; runs of 1993): active: 0.132, 0.243, 0.0315, -37.7, -50.1, -57.6, -13.2, -66.1, -42.3, -78.2, -45.7, -18.3, 1.78, -24.2, -62.7, -27.3, -21.7, -16.4, 3.98, 3.78, -64.8, -14.7, -26.1, -14.5, 9.13, -30.5, -46.2, -59.4, -1.84, -12.3, -24.7, -25.4, -30.8, -22.3, -53.9, -53.2, -17.2, -40.6, -43.8% and inactive: 14.3, 14.8, 22.6, 95, 84.8%
- growth ([2]; runs of 1994): active: 3.08, -21, -33.5, -8.2, -34.9, -68.8, -67, -23, -20.1, -7.06, -20, 0, 8.18, -61.2, -28.2, 1.55, -24.2, -65.6, 6.49, -1.21, -24.5, -0.94, -51.7, -73.8, 3.3, 8.78, -41.2, 7.06, 7.42% and inactive: 11%, 18.9%, 12.1%
- growth ([2]; runs of 1995): active: 2.26, -39.9, -16.5, 7.93, -4.08, 9.76, -77.2, 4.99, -37.7, -28.1, 0.279, -15.3, -54.8, -8.87, -52.5, -17.1, -50.1, -24.7, 0.289, -72.9, -28.2, 2.38, -3.99, 0.74, -0.419, -13.4, 0.174, -29, 0.492, -46.4, -40.2, -55.9, -20.6, -67.2, -34.6, -2.14, -57.7% and inactive: 12.3%
- growth ([2]; runs of 1996): active: 4.93, -7.87, -68, -44.6, -22.4, 9.23, -70.7, -67.5, 3.65, -50.6, -25, -26.4, -33.9 (2×), 8.31, 6.62, -15.1, 0.537, -25.6, -29, -26, -17, 9.92, -8.28, -5.96, 4.12, -2.78, -4.11, -43.5, -27.8, -14.4, 3.42, -19.9, -19.3, -74.4, -22.2, -7.27, -26.7, -45.3, -35% and inactive: 26.6, 14.9, 10.4, 16.4, 20, 15.4, 27.4, 24.1, 34.2, 42.3, 32%
- growth ([2]; runs of 1997): active: 4.71, -22.3, -13.2, -23.7, -53.1, 6.05, -1.3, 4.84, -11.5, -48.2, 5.56, 3.34, -11.3, -13.1, -52.1, 4.94, 4.48, 7.06, -31.9, 1.45% and inactive: 15.4, 13.3, 131, 20.4, 15, 31.8, 18.6, 13.4, 11.1, 12.8, 27.4, 15.9, 32.6, 24.4, 10.5%
- growth ([2]; runs of 1998): inactive: 16.2, 25.5, 35.8, 27, 27.7, 21.8, 17.5, 19.1, 20.6, 20.2% and active: -52.3, -19.1, 5.07, 3.3, -19.7, 4.74, 4.3, -28.9, -39.3, -4.98, -18.9%
- growth ([2]; runs of 1999): inactive: 30.7%, 28%, 11.7% and active: 7.02, -50.4, -81.8, 0.0623, 1.82, 1.11, -14.4%
- growth ([2]; runs of 2000): active: -26.5, -14.7, 0.262, -26.6%
- growth ([3]; runs of 1991): active: -21, 8, 9.24, 9.28, 4.56, -11.8, 4.29, 0.208, 4.31, -2.93, -3.08% and inactive: 16, 32.5, 13.3, 40, 28.7, 16.6, 21.1%
- growth ([3]; runs of 1992): active: -5.71, 3.18, 5.39, -2.43, 7.66, -9.4, 6.1, -9.6, -13.5, 1.76, -6.46, -6.5, -22.3, -1.94, 4.34, 1.83, -2.09, 5.18, 8.58, -7.83, 8.64, -20.5, -16.9, 1.33, -6.67, -8.35, -2.03, 7.91, -13.2, 7.21, -32.1, -14.2, 4.55, -6.6, 4.45, 7.48, -14.4, -17.3, -6.25, -8.76, 5.58, -3.95, -6.82, 9.36, -5.53, -15.3, 2.68, 5.46, 4.81, 9.88, -3.7, 9.68, 3.48% and inactive: 10.9, 31.7, 11.8, 13.7, 38.3, 34.5, 31, 17.3 (2×), 54.4, 25.6, 31.8 (2×), 17.8, 14.2, 19.6, 14, 37.3, 33.5 (2×), 34.2 (2×), 23, 28.3, 16.7, 29.1, 28.6, 11, 10.3, 14.3, 22.8 (2×), 44.5, 30.3, 31.9, 112, 16.6, 11.2, 13.4, 38.6, 38, 22.7 (2×), 15.2, 42.9, 22.3, 12.1, 51.8, 49, 38.7, 13.2, 23.4, 28.5, 31.6, 15.8, 16.2, 24, 10, 26.7, 30.9, 43.9, 23.7, 29.6, 34.9, 25.7%
- growth ([3]; runs of 1993): active: -0.954, -14.5, 4.77, 6.59, 7.93, -8.53, 8.69, 3.52, 4.56% and inactive: 16.7, 36.3, 40.5, 11.7, 22.6, 14.1, 40, 23.8, 31.6, 28.9, 29.2, 39.5, 24.8, 37.5 (2×), 12.4, 12.2, 16.9, 17.1, 30.1, 22.5 (2×), 28.6, 28.4, 26.5, 16.3, 18.5, 76.4, 21.7, 128, 32.4, 22.8, 24.7, 41.3%
- growth ([3]; runs of 1994): inactive: 37.4, 20.6, 12.7, 24.2 (2×), 13.8, 11.9, 25.6, 22.3, 18.7, 24.9, 14.6, 35.2, 22.6, 11.6, 27.6, 34.2, 30.6, 29.5, 37.8, 10.1, 34.5, 22.9, 54.1, 34.8, 30, 25.9, 23.8, 20.3, 26.7, 24.7% and active: -2.22%, -27.4%
